Measurements: PubChem BioAssay AID686979 (National Center for Advancing Translational Sciences (NCATS), 2013)
Screen size: about 420,000 compounds; about 50,000 (12%) were called active. The shares of active, inactive and inconclusive entries below differ from those in the screen. The call rests on the fitted dose curve; in most records, active means well fitted inhibition curve with a large enough effect; inconclusive means small, poorly fitted or top-dose-only effect; inactive means flat fitted curve, though single readings scatter. Potencies of inconclusive entries are left out as doubtful fits.

experiment: qHTS for Inhibitors of human tyrosyl-DNA phosphodiesterase 1 (TDP1): qHTS in cells in presence of CPT; conditions: chicken DT40 Tdp1-/-;hTDP1 cells + 20 nM CPT, ATP luminescence, 48 h; activity change, negative = growth inhibition: at 46.2 µM (top of the series); further: nearly all actives have a fitted effect of over 55% in size
Method in brief: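 Cell growth measured by CellTiter-Glo luminescence after a minimum 48 h, 37 C compound exposure with 20 nM CPT in Tdp1-knockout DT40 cells stably expressing hTDP1, seeded 400/well; qHTS titration format.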
On the % scale 0 is the no-effect control and ±100 the full control effect; potency means the concentration at half of the fitted maximal effect; tags describe the fitted curve by direction and shape.

For `O=C(NC(=S)N1CCCCCC1)c1ccccc1Cl`, which Potency is on record?
The Potency was inconclusive [inhibitor, single point].

With `COc1ccc(C(=O)c2cn(Cc3ccccc3OC)c3cc4c(cc3c2=O)OCO4)cc1` as the molecule, how does the Potency read?
The Potency was inconclusive [inhibitor, single point].

With `Cc1nc2cc(Cl)c(Cl)cc2n1-c1ccccn1` as the molecule, how does the Potency read?
Its Potency is “inactive”.

With `CCc1nc(C)ccc1OCC(=O)N1CCc2c([nH]c3ccccc23)C1c1ccccn1` (stereo not given) as the molecule, how does the Potency read?
The Potency was active: 20.6 µM.

For `O=S1(=O)CC(N2CCCC2)CN1C1CCCCC1` (stereo not given), which Potency is on record?
The Potency was “inactive”.

Which Potency does the source give for `Cc1ccc(C)c(NC(=O)c2cc(C)nc3ccccc23)c1` here?
The Potency was “inactive”.

For `O=C(NCCSCc1ccccc1)c1cc(S(=O)(=O)N2CCOCC2)ccc1F`, which Potency is on record?
The Potency was active: 11.6 µM.

For `Cc1cccc(C)c1N(CC(=O)NCc1ccccc1)C(=O)c1csnn1`, which Potency is on record?
Its Potency is “inactive”.

With `O=C(/C=C/c1ccc(S(=O)(=O)N2CCOCC2)cc1)NC(=S)Nc1ccc(N2CCOCC2)cc1` as the molecule, how does the Potency read?
Its Potency is “inactive”.

With `COC(=O)c1ccc(C(=O)OC)c(NC(=O)CSCc2ccc(Br)cc2)c1` as the molecule, how does the Potency read?
Its Potency is inconclusive [inhibitor, single point].

For `CN1CCOC1c1ccc(C2OCCN2C)cc1` (stereo not given), which Potency is on record?
Its Potency is inconclusive [inhibitor, single point].

Which Potency does the source give for `Cc1cc(C)cc(-n2ccnc2SCC(=O)Nc2ccccc2F)c1` here?
The Potency was active: 23.1 µM.

Which activity change, negative = growth inhibition does the source give for `CC(=O)Nc1ccc(C(=O)N2CCCC(c3cc(C(=O)NCc4ccccc4)no3)C2)cc1` (stereo not given) here?
The activity change, negative = growth inhibition was inconclusive: -35.6% [inhibitor].

Which Potency does the source give for `COc1ccc(C)cc1S(=O)(=O)N1CCCC(C(=O)N2CCN(c3ccccc3)CC2)C1` (stereo not given) here?
The Potency was inconclusive [inhibitor, single point].

Which Potency does the source give for `Cc1nnc2c(N(C)S(=O)(=O)c3ccccc3)nc3ccccc3n12` here?
The Potency was “inactive”.

Which Potency does the source give for `O=C(NC1CCCC1)c1cc2nc(-c3ccco3)cc(C(F)(F)F)n2n1` here?
The Potency was inconclusive [inhibitor, single point].

For `Cc1nc(C(=O)Nc2ccccc2Cl)cc2c1[nH]c1ccccc12`, which Potency is on record?
Its Potency is inconclusive [inhibitor, partial curve].

Which Potency does the source give for `Cc1ccc(C(=O)N2CCN(C(=O)N3CCOCC3)CC2)cc1` here?
The Potency was “inactive”.

With `CN(C)c1nc(N)nc2c1ncn2C1OC(CO)CC1O` (stereo not given) as the molecule, how does the Potency read?
The Potency was inconclusive [inhibitor, single point].

For `CN1CCC(N(CCc2ccccc2)C(=O)CCC(=O)O)CC1`, which Potency is on record?
The Potency was “inactive”.

Which Potency does the source give for `COc1ccc(NC(=O)CCn2c(=S)[nH]c3ccccc3c2=O)cc1OC` here?
The Potency was “inactive”.

For `CC(NC(=O)COc1ccc(-c2ccccc2)cc1)C1CCCO1` (stereo not given), which Potency is on record?
Its Potency is active: 20.6 µM.

Which Potency does the source give for `COc1ccc(OCC(=O)NCc2ccc3c(c2)CCN3C(=O)c2cccc(C)c2)cc1` here?
The Potency was active: 1.84 µM.

Which Potency does the source give for `CN(C)c1ccnc2sc3c(=O)n(-c4ccccc4)cnc3c12` here?
Its Potency is inconclusive [inhibitor, single point].

Which Potency does the source give for `O=[N+]([O-])c1ccc(/C=N/Nc2nc(N3CCCCC3)nc(N3CCCCC3)n2)o1` here?
The Potency was inconclusive [inhibitor, single point].

With `CC1(C)CC(=O)c2c(nc(SCC(=O)Nc3nsc(-c4ccccc4)n3)c(C#N)c2-c2ccccc2)C1` as the molecule, how does the Potency read?
The Potency was active: 5.17 µM.

For `Cc1cccc(NC(=O)c2cccc(C(=O)Nc3cccc(C)c3C)n2)c1C`, which Potency is on record?
The Potency was “inactive”.

Which Potency does the source give for `CSc1ccc(CCNC(=O)c2ccc(-n3c(C)cc4c3CCC(C)C4)cc2)cc1` (stereo not given) here?
Its Potency is “inactive”.

With `O=C(CCCn1c(=O)[nH]c2cc(Cl)ccc2c1=O)N1CCN(c2ccc([N+](=O)[O-])cc2)CC1` as the molecule, how does the Potency read?
The Potency was inconclusive [inhibitor, single point].

Which Potency does the source give for `Cc1cc(C(=O)Nc2ccccc2C(=O)O)c(C)o1` here?
The Potency was inconclusive [inhibitor, single point].

For `CCc1cccc(NC(=O)CC(c2ccc(OC)cc2)N2Cc3ccccc3C2=O)c1` (stereo not given), which Potency is on record?
The Potency was active: 20.6 µM.

Which Potency does the source give for `CCOc1ccc(NC(=O)N(CCN(C)C)C(C)c2ccncc2)cc1` (stereo not given) here?
Its Potency is “inactive”.

For `CC(C)c1ccc(C2NC(=O)c3c(sc4c3CCN(C)C4)N2)cc1` (stereo not given), which Potency is on record?
Its Potency is inconclusive [inhibitor, single point].

With `CCOc1ccccc1NC(=O)Cn1c(=O)n(-c2ccc(C)cc2)c(=O)c2c1cnn2C` as the molecule, how does the Potency read?
The Potency was inconclusive [inhibitor, single point].

With `CN(Cc1c(F)cccc1Cl)C(=O)CNC(=O)c1sc2ccccc2c1Cl` as the molecule, how does the Potency read?
Its Potency is “inactive”.

With `COc1ccc(CC(=O)NC2CCSc3ccccc32)cc1OC` (stereo not given) as the molecule, how does the Potency read?
Its Potency is “inactive”.

With `CCOc1ccc(OCc2ccc(C(=O)N3CCCC3)o2)cc1` as the molecule, how does the Potency read?
Its Potency is inconclusive [inhibitor, single point].

With `CCOc1cc(OCC)cc(C(=O)NCCN2CCC(n3c(=O)[nH]c4ccccc43)CC2)c1` as the molecule, how does the Potency read?
The Potency was inconclusive [inhibitor, single point].

Which Potency does the source give for `C/C(=N\O)C(C)(C)Nc1ccc(Br)cc1` here?
The Potency was “inactive”.

For `Cc1cc(NNC(=O)c2cccc(C(F)(F)F)c2)nc2c1c(C)nn2C`, which Potency is on record?
Its Potency is active: 10.3 µM.

With `CCCn1c(-c2cccnc2Cl)nc2cc(Cl)c(Cl)cc21` as the molecule, how does the Potency read?
Its Potency is active: 14.6 µM.

Which Potency does the source give for `O=C(Nc1ccc(N2CCOCC2)cc1)C1CCCN(S(=O)(=O)c2cccc(C(F)(F)F)c2)C1` (stereo not given) here?
Its Potency is “inactive”.

With `Cc1cccc(-c2nc(Nc3ccc(O)cc3)c3ccccc3n2)c1` as the molecule, how does the Potency read?
The Potency was inconclusive [inhibitor, single point].

For `O=S(=O)(c1cccc(-c2nc3n(n2)Cc2ccccc2-3)c1)N1CCCCC1`, which Potency is on record?
Its Potency is inconclusive [inhibitor, single point].

With `O=C(CS(=O)(=O)c1cn(CC(=O)N2CCCC2)c2ccccc12)Nc1ccccc1F` as the molecule, how does the Potency read?
The Potency was “inactive”.

Which Potency does the source give for `CN1C(=O)/C(=C/c2ccc(O)c([N+](=O)[O-])c2)N(C)C1=S` here?
Its Potency is inconclusive [inhibitor, partial curve].

Which Potency does the source give for `CCc1cccc(NC(=O)c2snc3c(=O)[nH]cnc23)c1` here?
Its Potency is “inactive”.

With `COc1ccc(NC2CCCN(C(=O)COc3ccc(Cl)cc3C)C2)cc1OC` (stereo not given) as the molecule, how does the Potency read?
The Potency was active: 23.1 µM.

Which activity change, negative = growth inhibition does the source give for `O=C1/C(=C/c2ccc(F)cc2)SC(=S)N1Nc1ncc(C(F)(F)F)cc1Cl` here?
The activity change, negative = growth inhibition was inconclusive: -33.6% [inhibitor].

Which Potency does the source give for `Cc1cc(OCc2cc(C(=O)NC3CCC3)no2)cc(C)c1Cl` here?
The Potency was inconclusive [inhibitor, single point].
